Here are results for 109 sequences from the supplement of paper PMC3334620.

In all, about 33,000 sequences were measured (“E-score (-0.5 to 0.5)”: median about -0.012, highest 2% from about 0.27 on). The list shows a part of the results.

This assay concerns the target T1, Vhr1 (UniProt P40522).
T1 sequence: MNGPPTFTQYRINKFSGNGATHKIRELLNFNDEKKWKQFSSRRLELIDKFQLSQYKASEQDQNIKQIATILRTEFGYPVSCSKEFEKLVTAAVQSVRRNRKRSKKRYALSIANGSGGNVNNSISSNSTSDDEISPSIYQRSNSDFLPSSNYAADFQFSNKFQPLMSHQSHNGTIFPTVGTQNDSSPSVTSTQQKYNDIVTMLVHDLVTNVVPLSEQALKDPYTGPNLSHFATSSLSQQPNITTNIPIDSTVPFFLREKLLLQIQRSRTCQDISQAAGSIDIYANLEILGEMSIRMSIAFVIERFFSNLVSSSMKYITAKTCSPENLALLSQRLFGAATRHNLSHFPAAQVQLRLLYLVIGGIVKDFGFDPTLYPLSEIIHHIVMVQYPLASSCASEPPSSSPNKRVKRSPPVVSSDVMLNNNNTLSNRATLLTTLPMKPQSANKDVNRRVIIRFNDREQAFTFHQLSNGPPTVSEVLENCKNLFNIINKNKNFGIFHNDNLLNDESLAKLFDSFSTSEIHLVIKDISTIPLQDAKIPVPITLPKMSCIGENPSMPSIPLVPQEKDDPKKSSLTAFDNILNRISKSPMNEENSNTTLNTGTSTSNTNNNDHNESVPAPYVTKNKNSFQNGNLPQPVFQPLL
The assay can be described thus: PBM E-score (8-mer binding enrichment) (E-score (-0.5 to 0.5)); higher = stronger / more preferred TF binding; most listed sequences are background and not binding sites. The note with it: protein concentration: 200 nM; construct: GST-full length. On the procedure: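 Universal 'all 10-mer' protein binding microarrays (Agilent AMADID 015681) probed with GST-tagged S. cerevisiae TFs (full-length or DBD) made by in vitro transcription/translation (PURExpress), about 100-200 nM. Bound TF was detected with fluorescent anti-GST. Each ungapped 8-mer (which stands for itself and its reverse complement) is scored by the PBM enrichment score (E-score), a modified Wilcoxon-Mann-Whitney statistic from -0.5 to +0.5, computed with the Universal PBM Analysis Suite. Scale: above 0.35 generally sequence-specific binding.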
Regarding CCCTTTAA, the “PBM E-score” value is -0.0754.

Regarding TATACGGA, the “PBM E-score” value was determined as 0.0337.

For AAGTTCTC, the “PBM E-score” value is -0.0694.

With AGTAAGCG, the “PBM E-score” value is -0.0453.

Regarding TATGCTAA, the “PBM E-score” value is -0.0598.

Take CCACCGTC: the “PBM E-score” value was -0.0714.

Regarding ACATGGGA, the “PBM E-score” value is 0.131.

Consider GGCTTGTA, for which the “PBM E-score” value was 0.0426.

Turning to ATTCCTGG, the “PBM E-score” value was found to be 0.149.

On to GCGGCCAA, for which the “PBM E-score” value was -0.0733.

Turning to ATTACTAG, the “PBM E-score” value was -0.0784.

Turning to GAAGGGGA, the “PBM E-score” value is -0.105.

Consider GACCGGTC, for which the “PBM E-score” value is -0.225.

In the case of GTATGTAA, the “PBM E-score” value stood at 0.0638.

On to GACCTTCC, for which the “PBM E-score” value is -0.134.

Consider CACAATTA, for which the “PBM E-score” value is -0.111.

Regarding ACACGGAC, the “PBM E-score” value is -0.0486.

As for CCCGTAAA, the “PBM E-score” value was -0.0071.

As to AGGCTCCA, the “PBM E-score” value is -0.138.

CATATTAG: the “PBM E-score” value is -0.0339.

In the case of GATAAGCC, the “PBM E-score” value was -0.115.

For the sequence CCGCTCCA, the “PBM E-score” value was -0.0108.

Regarding ACCCACCG, the “PBM E-score” value turned out to be 0.256.

CACGCGTG: the “PBM E-score” value came out at 0.181.

TACCCAGA: the “PBM E-score” value was determined as 0.192.

As for CCGATCAG, the “PBM E-score” value is -0.0785.

As for CGTAGTTA, the “PBM E-score” value was found to be 0.0682.

ATCGGGAA: the “PBM E-score” value was -0.0483.

As to CCCCGTTC, the “PBM E-score” value was 0.0158.

Regarding AACCGTAC, the “PBM E-score” value is -0.0106.

Consider CACCGAAC, for which the “PBM E-score” value is -0.0645.

For ACGTTAAT, the “PBM E-score” value is 0.0148.

On to GTAATCAC, for which the “PBM E-score” value amounted to 0.198.

Consider AGCGCACA, for which the “PBM E-score” value stood at 0.00461.

Take CGCGCGAC: the “PBM E-score” value was determined as 0.162.

Regarding AAAGGGGA, the “PBM E-score” value is -0.175.

Regarding TCCGAACA, the “PBM E-score” value is -0.196.

Take ACACTGTG: the “PBM E-score” value was determined as 0.252.

As for ACACGCAC, the “PBM E-score” value was determined as 0.0673.

On to AGTGACCA, for which the “PBM E-score” value came out at 0.151.

As for GGCGCGAA, the “PBM E-score” value was 0.0599.

In the case of GTGAACAC, the “PBM E-score” value was -0.0631.

As to ATATATTA, the “PBM E-score” value is 0.201.

For TCTTAGCA, the “PBM E-score” value is -0.139.

For the sequence AGTAAGTG, the “PBM E-score” value was -0.0132.

In the case of AACACCTA, the “PBM E-score” value turned out to be 0.0665.

For CACGCAAC, the “PBM E-score” value was -0.114.

For ACGGTCAC, the “PBM E-score” value was -0.0582.

With CCCATGCC, the “PBM E-score” value is 0.101.

On to CAGCAGCC, for which the “PBM E-score” value amounted to 0.0977.

CGTACCAC: the “PBM E-score” value was -0.146.

GCTACCCC: the “PBM E-score” value was -0.125.

Consider CAGAAGGG, for which the “PBM E-score” value was -0.226.

Turning to GACACACA, the “PBM E-score” value stood at 0.298.

ATCCGCCC: the “PBM E-score” value was 0.0504.

For the sequence ACGCCACG, the “PBM E-score” value was -0.154.

CCGCCAGA: the “PBM E-score” value is 0.129.

As for CCCAGGCA, the “PBM E-score” value is 0.0398.

With AGACGTAC, the “PBM E-score” value was -0.00933.

On to AACCTCTC, for which the “PBM E-score” value was -0.172.

With AACGGCCG, the “PBM E-score” value was 0.00713.

As for CGATACTC, the “PBM E-score” value is -0.00981.

On to CCGTGAGG, for which the “PBM E-score” value was determined as 0.0593.

On to TCGTTAGA, for which the “PBM E-score” value is -0.259.

In the case of CTGTTGGC, the “PBM E-score” value is -0.0833.

ATGCGGAG: the “PBM E-score” value is 0.0129.

With AGTTCTAT, the “PBM E-score” value is -0.0616.

Regarding ACAACATG, the “PBM E-score” value is 0.224.

With ACGAGTGA, the “PBM E-score” value turned out to be 0.0168.

With ACACCTAT, the “PBM E-score” value turned out to be 0.151.

For TGTTAGAA, the “PBM E-score” value was -0.163.

Consider GTAACTTA, for which the “PBM E-score” value came to 0.0909.

With GGTTTCAC, the “PBM E-score” value is -0.109.

Consider GGCTGGGA, for which the “PBM E-score” value was -0.0889.

As to GCCTCTCA, the “PBM E-score” value was -0.211.

In the case of CATCCCGA, the “PBM E-score” value stood at 0.128.

Take GTATAAAA: the “PBM E-score” value was -0.0845.

For the sequence AAACCCTT, the “PBM E-score” value is -0.0985.

Consider GATATCTA, for which the “PBM E-score” value is -0.0136.

As to CATCGCCA, the “PBM E-score” value is 0.0893.

Regarding ACGATGTC, the “PBM E-score” value was determined as 0.117.

In the case of AGCGTTAT, the “PBM E-score” value was -0.219.

For the sequence CCAAGATA, the “PBM E-score” value came out at 0.15.

AACTGGCC: the “PBM E-score” value is -0.114.

For CATGCCAG, the “PBM E-score” value was 0.0228.

On to GTTCTCTA, for which the “PBM E-score” value is -0.292.

With CGCTTAGA, the “PBM E-score” value is -0.295.

Consider GAAGGTGC, for which the “PBM E-score” value was -0.195.

As to CGCCGTGC, the “PBM E-score” value amounted to 0.0149.

Regarding ACATTTAG, the “PBM E-score” value is -0.191.

For TCGATCGA, the “PBM E-score” value was found to be 0.2.

On to AATCCTGG, for which the “PBM E-score” value is -0.0483.

Consider GCTCGCGA, for which the “PBM E-score” value is 0.226.

Regarding GATAGGTA, the “PBM E-score” value was 0.0484.

Consider TACTAGCA, for which the “PBM E-score” value turned out to be 0.0335.

For the sequence AGTGTTTG, the “PBM E-score” value was 0.261.

Take TCCAGTAA: the “PBM E-score” value was -0.197.

With CCCACGAA, the “PBM E-score” value was found to be 0.00982.

As for CTTAGGAC, the “PBM E-score” value is -0.143.

On to CGGTTGCA, for which the “PBM E-score” value was -0.102.

For the sequence ACGAATCG, the “PBM E-score” value is 0.0809.

On to CGGAGCCG, for which the “PBM E-score” value is 0.188.

In the case of GATACAGA, the “PBM E-score” value is 0.129.

In the case of AGCGAACG, the “PBM E-score” value was -0.0842.

ATTTCGCC: the “PBM E-score” value was -0.0266.

CGTTTCTA: the “PBM E-score” value was -0.126.

Take ATCATGAG: the “PBM E-score” value was 0.235.

In the case of GATACCTA, the “PBM E-score” value was 0.163.

Regarding AGCTACAC, the “PBM E-score” value was 0.131.
